Source: the supplement of paper PMC11417369
Some of the results follow.

system: PF3D7_0420300 AP2 domain 1 (GST-tagged); assay: gcPBM binding intensity (ln(normalized median fluorescence intensity)); higher = stronger DNA binding
Summary of the method: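 GST-tagged P. falciparum DNA-binding domains, expressed in E. coli (about 25 μg on average), were applied for 1 h to an Agilent 4 × 180k array of primer-extended double-stranded 36-bp intergenic genomic probes plus negative controls. The binding buffer was 1× PBS with 1% milk, 0.2 mg/ml BSA, 0.5% salmon testes DNA and 0.03% Triton X-100. Bound protein was detected with Alexa488 anti-GST antibody and scanned at 488 nm. Binding intensity is the highest Masliner-normalised natural-log median intensity across replicate spots of either probe orientation.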

Row | Sequence | gcPBM binding intensity (ln)
1 | TCTTTAGCTTCTTCTTTTTTTTTTTTTTTTTTTTTT [XGTACX_negctrl_site518] | 9.22
2 | ATATATATATATATATGTACATAAACATATATATAT [XGTACX_site1064] | 9.12
3 | CATATGTTATATGTAGTGCATTACTATAGGATTTAT [GTGCAC_site9860] | 9.23
4 | TATTTTGCAAAATGTGCATGTTGTGTATTATGTGAC [TGCATGCA_site59] | 9.54
5 | ATTATAATATATATATGTACATATATATATAATACT [XGTACX_site5092] | 9.17
6 | GTATAATTGGAAATTACACACCTTAGAATGTAACAT [CACACA_site4059] | 9.31
7 | ATATATAATATTGGTGGTACAAGGGTATTTTATATT [XGTACX_site8215] | 9.41
8 | TATAATATACTATGTGGTACATATATATATTTATAG [XGTACX_site4556] | 9.13
9 | TCATTTATTTTTCTTTGTACACAAAAGTTTTTATGT [XGTACX_site690] | 9.41
10 | ATATATATTTTATATTGTACTTATTATTTTTAGGGC [XGTACX_site723] | 9.03
11 | AGGATATATATATTCACACACACATGGAAATATATA [CACACA_site383] | 9.86
12 | TATGAATATCTATACACACACATATAAATACACGCT [CACACA_site6853] | 9.92
13 | AAAAAACAAATAAGTAAACACACATATATAATATAT [CACACA_site8830] | 9.85
14 | CTAATTGTTATTTTGTGTACTTATCATTCGAAATAT [XGTACX_site7963] | 9.31
15 | TAGATGTAAGTACATACACACATATATAAATAAATA [CACACA_site8528] | 9.49
16 | ATATATATTTTAATTACACACAAAAAAAAAAAAAAA [CACACA_site4778] | 9.11
17 | AAAAAAAAAAAAAATACACACATATTTTATAGGGGA [CACACA_site3261] | 9.49
18 | TATTTTTTGAAAAGTTCACACATCCAACTCGAGTTG [CACACA_site4412] | 9.06
19 | AAAATAATGAAATGAAAAAAAAAAATTTAGATTCTA [CACACA_negctrl_site1385] | 9.07
20 | TTATATATTTTTAGGTGTACTTTTTTTTTTTTTTTT [XGTACX_site8164] | 9.33
21 | GTCATATATTTATGTACACACATATATATATTTATA [CACACA_site4911] | 9.55
22 | TATATATAAAAAAAAAGTACATATAATATAATATTT [XGTACX_site7902] | 9.34
23 | GGTGTTTTTCACAGATGTACACAAATAAAAAAGAAA [XGTACX_site4454] | 9.21
24 | AAATGGACAGTATAAAAATGGAGAATATAAAAATTT [CACACA_negctrl_site889] | 9.46
